Assay results published in PubChem BioAssay AID1347120 (National Center for Advancing Translational Sciences (NCATS), 2019).
In all, about 390,000 compounds went through this assay and about 930 (0.24%) were called active. The shares of active, inactive and inconclusive entries below differ from those in the screen. Calls follow the shape of the dose curve; as a rule, active = well fitted activation curve with a large enough effect; inconclusive = small, poorly fitted or top-dose-only effect; inactive = no such curve, though single readings can be large or run the other way. A potency beside an inconclusive call is a rough fit, not a confirmed value.

Assay: qHTS for Suppressors of FUS Proteinopathy: Primary screen using FUS-linked yeast assay; also: nearly all actives have a fitted effect of over 55% in size;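 as to growth rescue (activation): plate controls were DMSO vehicle for no effect and reference control for full effect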
Settings: S. cerevisiae FUS-expressing, OD600, 24 h; Potency: growth rescue; growth rescue (activation): at 76.6 µM (top of the series)
Summary of the method: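 Quantitative HTS measuring growth restoration of FUS-toxic yeast. Galactose-induced cells (OD 0.005) were exposed 24hr at 30C to compounds at several concentrations, then absorbance at 600 nm was recorded.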
Potency is read from the fitted curve at half-maximal effect; tags tell the direction and shape of the fitted curve.

Compound	Potency	growth rescue (activation)
Cc1cc(N2CCN(c3ccccn3)CC2)n2cc(-c3ccccc3)nc2n1	inactive	
Cc1ccc(C(=O)Nc2nc(-c3ccccn3)cs2)o1	inconclusive: 22.4 µM [activator, partial curve, poor fit]	
Cc1ccc(Cn2cc(CN3[C@H](c4ccccc4)COc4cc(Br)ccc4S3(=O)=O)nn2)cc1	inconclusive: 25.1 µM [activator, partial curve, poor fit]	
CC[C@@H]1C(c2ccccc2)=NN(c2ccccc2)[C@H]1C(=O)N1CCOC1=O	inconclusive: 20 µM [activator, partial curve, poor fit]	
COc1ccc(NC(=O)CSc2nnc(Cc3cccn3C)n2CCc2ccccc2)c(OC)c1	inconclusive: 50.1 µM [activator, partial curve, poor fit]	
COc1ccc2sc(-c3ccccc3OC)c(-c3ccc4c(c3)OCCO4)c2c1	inactive	
COc1ccc([C@H]2C[C@H](n3cc(COC(=O)c4ccccc4)nn3)[C@@H](O)CN2Cc2cccs2)cc1	inconclusive: 35.5 µM [activator, single point]	
CCN(CC)S(=O)(=O)c1ccc(N2CCCC2)c(NC(=O)C2=NN(c3ccccc3)C(=O)CC2)c1	inconclusive: 35.5 µM [activator, single point]	
CC(C)(C)c1ccc(Oc2cccc(C3CC(=O)C(C4NCCc5ccccc54)C(=O)C3n3cncn3)c2)cc1 (stereo not drawn)	inconclusive: 25.1 µM [activator, partial curve, poor fit]	
CC1Cc2ccccc2N1C(=O)CN1C(=O)C(=O)N(Cc2ccccc2)C1=O (stereo not drawn)	inconclusive: 22.4 µM [activator, partial curve]	
Clc1cccc(Cc2c(-c3ccco3)nc3c4ccccc4ccn23)c1	inactive	
C=CCOCCN1C(=O)C2C3C=CC(C2C1=O)C1C2C(=O)N(CCOCC=C)C(=O)C2C31 (stereo not drawn)	inconclusive: 3.55 µM [activator, partial curve, poor fit]	
Cc1ccc(NC(=S)NNc2ncc(C(F)(F)F)cc2Cl)c(C)c1	inconclusive: 12.6 µM [activator, partial curve]	
Cc1ccccc1C(=O)OCC(=O)Nc1cccc(S(=O)(=O)N2CCCCC2)c1	inconclusive: 25.1 µM [activator, partial curve]	
O=C(NNC(=S)Nc1ccccc1)c1ccccc1[N+](=O)[O-]	inconclusive: 3.16 µM [activator, full curve]	
CC1O[C@H](OC2C(COC3OC(CO)C(O)[C@H](O)C3O)OC(OC3CC[C@]4(C)C(CC[C@@]5(C)[C@@H]4C=C[C@]46OC[C@@]7(CCC(C)(C)C[C@H]74)C(O)C[C@@]56C)C3(C)C)C(O)C2O)C(O)C(O)C1O (stereo partly drawn)	inconclusive: 15.8 µM [activator, partial curve]	
Cc1ccc(-c2nn3c(C)nnc3c3ccccc23)cc1S(=O)(=O)NC(C)c1ccccc1 (stereo not drawn)	inconclusive: 50.1 µM [activator, single point]	
Cc1oc(-c2ccccc2)nc1CNC(=O)Nc1ccccc1	inactive	
Cc1ccc([C@H]2C[C@H](O)[C@@H](n3cc(COC(=O)c4ccccc4)nn3)CN2Cc2cccs2)cc1	inconclusive: 28.2 µM [activator, single point]	
O=C(/C=C/c1cccc([N+](=O)[O-])c1)NCCSCc1cccc(Cl)c1	inactive	

Compound	Potency	growth rescue (activation)
CC(C)OCCCN1C(=O)c2[nH]nc(-c3ccccc3O)c2C1c1ccc(OCc2ccccc2)cc1 (stereo not drawn)	inconclusive: 31.6 µM [activator, single point]	
CCCCC1=CC2=C(c3ccco3)C(=O)C(C)(OC(=O)c3ccc(OC)cc3)C(=O)C2=CN1CCOC (stereo not drawn)	inconclusive: 25.1 µM [activator, partial curve]	
COc1cc(Cl)c(C)cc1NC(=O)CN1c2ccccc2S(=O)(=O)c2ccccc21	inconclusive: 25.1 µM [activator, single point]	
CC(C)Oc1ccc(F)cc1-c1cc(C(=O)NCc2cccs2)[nH]n1	inconclusive: 28.2 µM [activator, single point]	
C=CCn1c(SCC(=O)Nc2ccccc2-c2ccccc2)nnc1-c1ccc(Cl)cc1	inconclusive: 28.2 µM [activator, single point]	
COc1ccc(-c2noc(C3CCCN(C(=O)Nc4cc(C)cc(C)c4)C3)n2)cc1 (stereo not drawn)	inconclusive: 25.1 µM [activator, partial curve, poor fit]	
Cc1ccccc1CN1CCCCC(NC(=O)C(C)(C)C)C1=O (stereo not drawn)	inactive	
COC(=O)CNC(c1ccccc1)c1cc(Br)ccc1NC(=O)CCN1CCOCC1 (stereo not drawn)	inconclusive: 22.4 µM [activator, single point]	
CCCCNC(=O)C[C@H]1C[C@@]2(C(=O)OC)C(=C[C@H](C(C)(C)C)O[C@@H]2C)N(CCc2ccc(OC)c(OC)c2)C1=O	inconclusive: 17.8 µM [activator, partial curve, poor fit]	
COc1ccc(N2C(=O)C3C4C=CC(c5ccccc5)(C3C2=O)C2C(=O)N(c3ccc(OC)cc3)C(=O)C42)cc1 (stereo not drawn)	inconclusive: 28.2 µM [activator, partial curve, poor fit]	
CCOC(=O)c1c(S(=O)(=O)NCC(=O)N2CCN(c3ccccc3OC)CC2)c(C)n(C)c1C	inconclusive: 28.2 µM [activator, single point]	
CCCN=C1N/C(=C\c2ccco2)C(=O)N1c1ccccc1	inconclusive: 20 µM [activator, partial curve, poor fit]	
O=C(NCc1ccc(Cl)c(Cl)c1)c1cc(C2CCCCN2C(=O)C2CCCCC2)on1 (stereo not drawn)	inconclusive: 25.1 µM [activator, single point]	
O=C(CN1CCCCCC1)Nc1ccccc1Cl	inconclusive: 4.47 µM [activator, full curve, poor fit]	
CC(C)C[C@H]1CN([C@@H](Cc2ccc(O)cc2)CN2CCC[C@@H]2CN2C(=S)NC[C@@H]2Cc2ccccc2)C(=S)N1CCc1ccccc1	inconclusive: 31.6 µM [activator, single point]	
COc1ccccc1NC(=O)Nc1nc(CC(=O)N2CCN(c3ccccc3)CC2)cs1	inconclusive: 3.98 µM [activator, partial curve, poor fit]	
O=C(O)c1cccc(NC(=S)NC(=O)C(c2ccccc2)c2ccccc2)c1	inconclusive: 20 µM [activator, partial curve, poor fit]	
CCCCn1c(CNC(=O)c2ccc(OC)cc2)nnc1SCC(=O)Nc1ccccc1	inactive	
CC(C)c1ccc(NC(=O)c2cccn2-c2nnc(N3CCCCC3)s2)cc1	inconclusive: 35.5 µM [activator, single point]	
O=C1c2[nH]nc(-c3ccccc3O)c2C(c2cccc(Cl)c2)N1Cc1ccco1 (stereo not drawn)	inconclusive: 50.1 µM [activator, single point]	

Compound	Potency	growth rescue (activation)
COC(=O)C1CN(CC(C)C)CCS(=O)(=O)N1Cc1cccc(Cl)c1 (stereo not drawn)	inactive	
CC(=O)Nc1ccc(NC(=O)C(C)OC(=O)c2ccc(-n3cnnn3)cc2)cc1 (stereo not drawn)	inconclusive: 25.1 µM [activator, partial curve]	
CCN(CC)c1ccc(/C=N/NC(=O)c2nnn(-c3nonc3N)c2C(C)C)c(O)c1	inconclusive: 11.2 µM [activator, partial curve, poor fit]	
COC(=O)[C@]12C[C@H](CC(=O)NCc3ccc(C)o3)C(=O)N(Cc3ccc(Cl)cc3Cl)C1=C[C@H](C(C)C)O[C@@H]2C1CC1	inactive	
CC(Sc1nnnn1C)C(=O)Nc1ccc(Oc2ccccc2)cc1 (stereo not drawn)	inactive	
Cc1ccc(Sc2nnc(Cc3ccccc3)c3ccccc23)cc1	inconclusive: 8.91 µM [activator, partial curve, poor fit]	
Cc1ccc(NC(=O)CC2Nc3cccc4cccc(c34)NC2=O)cc1 (stereo not drawn)	inconclusive: 15.8 µM [activator, partial curve, poor fit]	
CC(C)Cn1c(-c2csc(C(C)C)c2)n[nH]c1=S		inconclusive: -69% [activator]
Cc1ccc(Cl)cc1N1C(=O)N(Cc2ccc(C#N)cc2)c2ccccc2S1(=O)=O	inconclusive: 14.1 µM [activator, partial curve, poor fit]	
COc1ccc(Cl)cc1NC(=O)CCCn1c(C)c2cnn(-c3ccccc3)c(=O)c2c1C	inconclusive: 35.5 µM [activator, single point]	
Cc1ccc2cc(C3CC(c4cccs4)=NN3S(C)(=O)=O)c(Cl)nc2c1 (stereo not drawn)	inconclusive: 31.6 µM [activator, single point]	
Cc1ccc(-c2cc3ncc(C#N)c(N)n3n2)cc1	inactive	
CCNc1nc(NCC)n2c(SCC(=O)Nc3ccc(C)c(C)c3)nnc2n1	inactive	
CCCCC/C=C/C1=CC(=O)C[C@H](c2ccc(OC)c(OC)c2)C1	inconclusive: 31.6 µM [activator, single point]	
O=C(Nc1c(-c2ccc(Cl)cc2)[nH][nH]c1=O)c1ccccc1Cl	inactive	
COc1ccc(C(C)=O)cc1CS(=O)(=O)CC(=O)NCCc1c[nH]c2ccccc12	inconclusive: 25.1 µM [activator, single point]	
CC(C)C[C@H]1CNC(=S)N1C[C@H]1CCCN1C[C@H](Cc1ccc(O)cc1)N1C[C@H](Cc2ccccc2)N(CC2CCCCCC2)C1=S	inconclusive: 28.2 µM [activator, single point]	
CCOC(=O)C1=C(COC(=O)/C=C/c2ccccc2Cl)NC(=O)NC1C (stereo not drawn)	inconclusive: 22.4 µM [activator, partial curve, poor fit]	
